Reference: publication PMC4336329 (PLoS ONE, 2015)
The whole screen tested about 310,000 compounds, of which about 2,200 (0.71%) showed an effect of 50% or more. Effects have a minus sign here. The list shows a part of the results.

Each compound was assayed against human ether-à-go-go-related gene (hERG) potassium channel (human, UniProt Q12809) (assay: primary screen, population patch clamp on CHO cells stably expressing hERG).
Sequence of human ether-à-go-go-related gene (hERG) potassium channel (Q12809 whole entry, looked up): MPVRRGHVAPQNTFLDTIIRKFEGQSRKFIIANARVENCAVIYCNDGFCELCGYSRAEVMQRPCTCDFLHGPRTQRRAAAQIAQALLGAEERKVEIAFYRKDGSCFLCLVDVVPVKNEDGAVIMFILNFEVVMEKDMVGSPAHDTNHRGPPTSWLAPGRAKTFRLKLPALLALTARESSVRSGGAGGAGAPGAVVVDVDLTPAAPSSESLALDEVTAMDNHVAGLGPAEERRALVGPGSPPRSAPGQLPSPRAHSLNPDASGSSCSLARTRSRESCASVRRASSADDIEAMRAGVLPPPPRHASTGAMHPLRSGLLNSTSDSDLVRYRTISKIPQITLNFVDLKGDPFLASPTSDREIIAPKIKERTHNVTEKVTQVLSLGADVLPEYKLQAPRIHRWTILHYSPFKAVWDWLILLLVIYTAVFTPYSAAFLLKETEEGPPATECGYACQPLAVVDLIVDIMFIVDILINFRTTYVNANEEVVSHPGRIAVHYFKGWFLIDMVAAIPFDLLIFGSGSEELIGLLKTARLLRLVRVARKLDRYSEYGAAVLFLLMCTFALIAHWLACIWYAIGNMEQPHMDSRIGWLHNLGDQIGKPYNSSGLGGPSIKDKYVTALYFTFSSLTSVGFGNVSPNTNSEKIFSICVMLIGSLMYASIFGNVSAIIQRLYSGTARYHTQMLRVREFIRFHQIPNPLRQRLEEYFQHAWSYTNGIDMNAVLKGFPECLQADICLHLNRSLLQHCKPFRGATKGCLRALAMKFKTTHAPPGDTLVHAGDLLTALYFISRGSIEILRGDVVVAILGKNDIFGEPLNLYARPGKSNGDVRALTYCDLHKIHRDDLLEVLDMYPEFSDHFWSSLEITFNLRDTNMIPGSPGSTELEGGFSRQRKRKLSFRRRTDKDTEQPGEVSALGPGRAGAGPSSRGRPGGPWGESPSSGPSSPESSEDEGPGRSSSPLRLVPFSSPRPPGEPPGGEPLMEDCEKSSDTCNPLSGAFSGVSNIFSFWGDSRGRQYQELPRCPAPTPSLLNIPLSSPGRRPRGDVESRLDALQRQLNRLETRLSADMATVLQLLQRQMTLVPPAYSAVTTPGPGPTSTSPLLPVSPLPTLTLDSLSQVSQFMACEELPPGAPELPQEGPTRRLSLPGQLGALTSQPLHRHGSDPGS

Structure (SMILES)	hERG current change (%, negative = inhibition) at 1uM [%]
COc1ccccc1C(=O)Nc1ccnn1C1CCN(CCC(C)c2ccc(C)o2)CC1 (stereo not drawn)	-88.2
CC1=NN(C(=O)COc2ccccc2C)C(O)(c2ccc(Cl)cc2)C1 (stereo not drawn)	9.7
CCc1cc(C(=O)c2ccc(Br)cc2)c(NC(=O)CN(CC)CC)s1	-0.0255
COc1ccc(CCn2c(Br)nc3c2c(=O)[nH]c(=O)n3C)cc1	1.97
C=CCN1C(=O)CN=C1Nc1cc(C)cc(C)c1.Cl	8.44
CCOC(=O)C1=C(C)N=C(/N=C/N(C)C)SC1c1ccccc1 (stereo not drawn)	23.6
Cc1onc(-c2c(F)cccc2Cl)c1C(=O)OCC(=O)c1c(N)n(C)c(=O)n(C)c1=O	10.2
CC1CN(CCC(=O)Nc2ccc3c(c2)OCO3)CC(C)O1.Cl (stereo not drawn)	5.92
CC(=O)N1CC2(c3ccccc3)CN(C(C)=O)CC(c3ccccc3)(C1)C2=O	1.19
O=C(O)C1CSC2(c3ccc4c(c3)OCCO4)CCC(=O)N12 (stereo not drawn)	9.84
COc1ccccc1CCNC(=O)c1cc(COc2cccc(C(F)(F)F)c2)on1	14.9
C=CCn1c(O)c(C(C)=NCCC(c2ccccc2)c2ccccc2)c(=O)[nH]c1=O	-1.45
N=C1C(=O)OCC1c1ccccc1NC(=O)Nc1ccccc1 (stereo not drawn)	18.4
O=C(c1cccs1)N1CCN(c2nc3c(F)cc(F)cc3s2)CC1	-1.62
C=CCNC(=O)CSc1nc2sc(C)c(C)c2c(=O)[nH]1	12.4
C/C(=N\Nc1ccc([N+](=O)[O-])cc1)c1ccc(-n2nncc2C(C)(C)C)cc1	1.42
Cc1ccc(C(=O)NC(=S)Nc2ccccc2N2CCOCC2)cc1C	5.97
CCc1n[nH]c(=S)n1/N=C/c1c(C)nn(-c2ccccc2)c1Cl	13.3
O=C(CSc1nnc(-c2ccco2)o1)Nc1ccccc1Cl	11.7
CC(=O)OCC1=C(C(=O)O)N2C(=O)C(NC(=O)CCn3nc(C)c(Cl)c3C)C2SC1 (stereo not drawn)	7.84
CCOC(=O)C1=C(C)Nc2nc(C)nn2C1c1ccc(OC)c(OC)c1 (stereo not drawn)	11.4
CC(=O)c1ccc(NC(=O)C2CCCN(c3ncnc4c3nc3n4CCCCC3)C2)cc1 (stereo not drawn)	3.39
O=C(NC1CCCCCC1)C1CCN(C(=O)c2ccc(Cl)cc2)CC1	2.62
O=C(Nc1ccc2ccccc2c1)c1onc2c1CCCC2	7.65
